From PubChem BioAssay AID1460 (National Center for Advancing Translational Sciences (NCATS), 2008)
The campaign covered roughly 270,000 compounds. About 5,800 (2.1%) were called active. Inconclusive means that the source gave no clear call. Such entries were picked first, then a sample of the others. The call rests on the fitted dose curve; in most records, active means well fitted inhibition curve with a large enough effect; inconclusive means small, poorly fitted or top-dose-only effect; inactive means flat fitted curve, though single readings scatter. Potencies beside an inconclusive call are fits to weak or partial responses and may not hold up.

Each compound was assayed against Microtubule-associated protein tau (Homo sapiens) (UniProt P10636) (assay: qHTS for Inhibitors of Tau Fibril Formation, Thioflavin T Binding). Details: recombinant tau K18 P301L (four-repeat tau fragment), heparin-induced fibrillization, ThT fluorescence; series mostly up to 57.4 µM; activity, negative = inhibition: at the top concentration.
Sequence of UniProt P10636 (P10636 whole entry, looked up, the tested form may be a part): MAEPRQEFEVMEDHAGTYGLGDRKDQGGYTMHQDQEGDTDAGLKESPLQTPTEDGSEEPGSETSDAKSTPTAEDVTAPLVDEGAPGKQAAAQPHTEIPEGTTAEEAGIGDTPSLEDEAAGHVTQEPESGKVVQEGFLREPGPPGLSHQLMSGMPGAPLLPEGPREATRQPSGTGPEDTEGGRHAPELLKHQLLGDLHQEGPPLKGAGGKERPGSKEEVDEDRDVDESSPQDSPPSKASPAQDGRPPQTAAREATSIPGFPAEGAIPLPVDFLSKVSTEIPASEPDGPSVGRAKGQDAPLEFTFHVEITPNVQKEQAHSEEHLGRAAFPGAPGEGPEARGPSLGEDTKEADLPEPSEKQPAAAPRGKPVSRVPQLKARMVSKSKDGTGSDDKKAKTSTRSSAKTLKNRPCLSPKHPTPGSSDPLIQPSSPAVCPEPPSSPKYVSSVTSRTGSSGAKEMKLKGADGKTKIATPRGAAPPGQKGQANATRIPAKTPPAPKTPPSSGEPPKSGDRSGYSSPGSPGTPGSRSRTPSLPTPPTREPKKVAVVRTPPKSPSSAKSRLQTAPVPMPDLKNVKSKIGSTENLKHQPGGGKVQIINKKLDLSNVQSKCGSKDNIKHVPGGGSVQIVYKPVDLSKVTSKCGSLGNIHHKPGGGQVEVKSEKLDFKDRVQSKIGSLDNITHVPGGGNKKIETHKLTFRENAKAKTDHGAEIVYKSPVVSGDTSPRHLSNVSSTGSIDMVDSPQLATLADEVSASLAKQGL
Summary of the method: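 K18 P301L tau (15 uM + 0.24 uM Alexa 594-tagged), heparin 20 uM, NaOAc pH 7, 6 h 37 C; ThT 30 uM, 1 h RT, ex 450/em 510 nm.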
Further: nearly all actives have a fitted effect of over 55% in size.
On the % scale 0 is the no-effect control and ±100 the full control effect; potency means the concentration at half of the fitted maximal effect; tags describe the fitted curve by direction and shape.

SMILES	Potency	activity, negative = inhibition
CCC1=NN2C(=N)/C(=C\c3cccn3-c3ccc(Cl)cc3)C(=O)N=C2S1	inconclusive: 3.55 µM [inhibitor, single point]	–
Cc1ccc(-n2c(N)c(C(=O)N3CCN(C)CC3)sc2=S)cc1	inconclusive: 28.2 µM [inhibitor, single point]	–
Cc1c(CN(C)C)c2c(n1Cc1ccccc1)C(=O)c1ccc(Br)cc1-2	active: 15.8 µM	–
Cc1ccn2c(Nc3ccccc3)c(-c3c[nH]c4ccccc34)nc2c1	inconclusive: 15.8 µM [inhibitor, partial curve]	–
COCCSc1nc(N)c2c3c(sc2n1)CN(C)CC3	inconclusive: 2.82 µM [inhibitor, single point]	–
CC(=O)N1CCc2cc(S(=O)(=O)CCC(=O)NCc3ccco3)ccc21	–	inactive: -2.98%
CCOC(=O)c1cnc2ccc(OCC)cc2c1NCc1cccnc1	inconclusive: 14.1 µM [inhibitor, single point]	–
COc1ccc(-c2c3c([nH]c(=S)c2C#N)CCC3)cc1	inconclusive: 14.1 µM [inhibitor, partial curve]	–
COc1ccc(CCNc2oc(COc3ccccc3)nc2C#N)cc1	inconclusive: 14.1 µM [inhibitor, partial curve]	–
Cc1cccn2c(=O)c(/C=C(\C#N)S(=O)(=O)c3ccccc3)c(N3CCC(C(N)=O)CC3)nc12	inconclusive: 31.6 µM [inhibitor, partial curve]	–
O=C(NCCn1cc(SCc2ccccc2)c2ccccc21)c1c(F)cccc1F	inconclusive: 14.1 µM [inhibitor, partial curve]	–
CC(C)CC1NC(=S)N(Cc2ccccc2)C1=O (configuration not stated)	–	inactive: -5.89%
Nc1nc2ccccc2nc1N	inconclusive: 44.7 µM [inhibitor, single point]	–
O=C(CSc1nnc(-c2cnccn2)n1Cc1ccco1)c1ccccc1	–	inactive: -5.85%
COc1cccc(=O)c2c(C)n(CC(=O)c3ccccc3)c(C)c12	active: 14.1 µM	–
CN1C=CC(=C2C(=O)c3ccccc3C2=O)C=C1	–	inactive: -16.8%
Cc1ccc(C)c(N2CCN(CCCNC(=O)c3cnn(-c4cccc(Cl)c4)c3C3CCN(C(=O)OC(C)(C)C)CC3)CC2)c1	inconclusive: 20 µM [inhibitor, partial curve, poor fit]	–
CC(C)c1ccc(CNc2ccc([N+](=O)[O-])cn2)cc1	inconclusive: 14.1 µM [inhibitor, partial curve]	–
CCc1ccccc1NC(=O)CCn1cccn1	–	inactive: -4.57%
O=C(NN1C(=O)c2cc(Br)ccc2NC1c1cc(Br)cc(Br)c1O)c1ccncc1 (configuration not stated)	inconclusive: 14.1 µM [inhibitor, partial curve]	–
Cc1ccc(CNC(=O)C2CCN(C(=O)N3CC(C)Oc4ccc(Cl)cc43)CC2)cc1 (configuration not stated)	inconclusive: 28.2 µM [inhibitor, partial curve]	–
CCC(C(=O)NCCc1ccc(OC)c(OC)c1OC)n1nc(C)c2sc3ccccc3c2c1=O (configuration not stated)	inconclusive: 2.82 µM [inhibitor, full curve]	–
O=C1CCCC(=O)N1c1ccc(N2CCN(c3ccccc3)CC2)c([N+](=O)[O-])c1	inconclusive: 15.8 µM [inhibitor, partial curve]	–

SMILES	Potency	activity, negative = inhibition
Cc1ccc(-n2c(=O)c3c(cnn3C)n(CC(=O)Nc3cccc(Cl)c3)c2=O)cc1	–	inactive: 3.12%
CC1(OC(=O)CCc2ccccc2)C(=O)C=C2C=C3CCCN3C=C2C1=O (configuration not stated)	active: 3.55 µM	–
CCCCc1c(O)nc(SCC(=O)c2ccccc2)n(-c2ccccc2)c1=O	inconclusive: 20 µM [inhibitor, single point]	–
O=C(CCn1cnc2onc(-c3ccc(F)cc3)c2c1=O)Nc1cccc(C(F)(F)F)c1	–	inactive: 13.7%
CNS(=O)(=O)c1ccc(NCC2COc3ccccc3O2)c([N+](=O)[O-])c1 (configuration not stated)	inconclusive: 20 µM [inhibitor, partial curve]	–
Nc1c(Cl)ncnc1N/N=C/c1cccc(O)c1	inconclusive: 25.1 µM [inhibitor, partial curve]	–
Cc1ccc(S(=O)(=O)N(C)CC(=O)O/N=C(\N)c2ccc([N+](=O)[O-])cc2)cc1	inconclusive: 7.94 µM [inhibitor, partial curve, poor fit]	–
Cc1noc(Cn2c(=O)c3ccccc3n(CC(=O)Nc3cc(Cl)ccc3C)c2=O)n1	–	inactive: 7.8%
CC(C)c1ccc(/C=C/C(=O)N2CCCCCC2)cc1	inconclusive: 35.5 µM [inhibitor, single point]	–
Cc1ccsc1C1NC(=O)c2c(sc3c2CCCC3)N1 (configuration not stated)	active: 3.16 µM	–
Cc1cc(C)cc(N2C(=O)CC(Sc3ccccc3C(=O)O)C2=O)c1 (configuration not stated)	inconclusive: 20 µM [inhibitor, partial curve]	–
Cc1ccc2nc3ccc(N4CCCC4)nn3c(=O)c2c1	inconclusive: 39.8 µM [inhibitor, partial curve, poor fit]	–
Cc1ccc(-n2c(C)c([N+](=O)[O-])c3ccc(O)c(CN(C)C)c32)cc1	inconclusive: 35.5 µM [inhibitor, single point]	–
O=C(Nc1ccc(-c2cn3ccccc3n2)cc1)c1ccco1	inconclusive: 20 µM [activator, partial curve, poor fit]	–
COc1ccc(C(=O)/C=C/Nc2ccc([N+](=O)[O-])cc2C)c(OC)c1	inconclusive: 1 µM [inhibitor, full curve]	–
COc1ccc(/C=C2\SC(=O)NC2=S)cc1OC	active: 8.91 µM	–
CCn1c(/C=N/NC(=O)c2ccc(OC)cc2)nc2ccccc21	inconclusive: 1.78 µM [inhibitor, full curve]	–
CC1(C)Cc2c(C#N)c(NC3CCCCC3)nc(-c3ccco3)c2CO1	inconclusive: 31.6 µM [inhibitor, single point]	–
COc1ccc(OCc2nc3ccccc3n2Cc2ccc(C(C)(C)C)cc2)cc1	–	inactive: -14.3%
N#CCCCN1C(=O)C(O)(CC(=O)c2ccc3c(c2)OCCO3)c2ccccc21 (configuration not stated)	inconclusive: 44.7 µM [inhibitor, single point]	–
Cc1ccc(-c2csc(N3CCC(NS(=O)(=O)c4ccc5c(c4)OCCO5)CC3)n2)cc1	–	inactive: -18.9%
COC(=O)/C=C/C(=O)Nc1cccnc1	–	inactive: -5%
COc1ccccc1NC(=O)c1cc2c(-c3ccccc3)nn(-c3ccccc3)c2s1	–	inactive: -4.33%

SMILES	Potency	activity, negative = inhibition
CCOc1ccccc1NC(=O)Cn1c(=O)nc(-c2ccccc2F)c2cc(Cl)ccc21	inconclusive: 17.8 µM [inhibitor, partial curve]	–
O=C(CN1C(=O)C2CCCCC2C1=O)OCC(=O)c1ccc(Cl)s1 (configuration not stated)	–	inactive: 0.442%
N/C(=N\OC(=O)COc1ccc(Br)cc1Cl)c1ccncc1	inconclusive: 11.2 µM [inhibitor, partial curve, poor fit]	–
C/C(=N\NC(=S)Nc1ccc(F)cc1)c1ccc2c(c1)OCCO2	inconclusive: 11.2 µM [inhibitor, partial curve]	–
CC(OC(=O)c1ccc(Cl)c(S(=O)(=O)N2CCc3ccccc32)c1)C(=O)Nc1ncc(Cl)cc1Cl (configuration not stated)	–	inactive: -10.3%
COc1ccc(N2CSC3=C(C#N)C(c4ccc(OC)c(OC)c4)CC(=O)N3C2)c(OC)c1 (configuration not stated)	active: 7.94 µM	–
CC(C)n1cnc2c(NCc3ccc(S(N)(=O)=O)cc3)nc(NCc3ccc(S(N)(=O)=O)cc3)nc21	inconclusive: 5.01 µM [inhibitor, full curve]	–
CCOC(=O)c1cccc(NC(=O)COc2ccc3c(C)cc(=O)oc3c2)c1	inconclusive: 31.6 µM [inhibitor, single point]	–
Cc1ccc(Cl)cc1N1CCN(C(=O)CSc2ccsc2[N+](=O)[O-])CC1	inconclusive: 12.6 µM [inhibitor, partial curve]	–
Cc1ccc(C2Nc3cccc4cccc(c34)N2)s1	inconclusive: 12.6 µM [inhibitor, partial curve]	–
Cc1cc(C)c2cc(CN(Cc3ccc4c(c3)OCO4)Cc3nnnn3Cc3ccco3)c(=O)[nH]c2c1	–	inactive: -9.96%
CCN(C(=O)c1c(C)oc2ncnc(N3CCCCC3)c12)c1cc(C)ccc1C	–	inactive: -0.292%
COc1cc(/C=N/Nc2ccc([N+](=O)[O-])cc2S(=O)(=O)N2CCOCC2)cc(OC)c1OC	inconclusive: 12.6 µM [inhibitor, partial curve, poor fit]	–
Cc1ccc(C(=O)NCCc2csc(-c3cccc(F)c3)n2)cc1C	inconclusive: 28.2 µM [inhibitor, single point]	–
COc1ccc(-c2noc(CN(C(=O)c3ccc(C)cc3C)C(C)C)n2)cc1	inconclusive: 15.8 µM [inhibitor, partial curve]	–
CCOC(=O)c1ccc(NC(=O)CC2OCCN(CC)C2=O)cc1 (configuration not stated)	inconclusive: 20 µM [inhibitor, partial curve, poor fit]	–
CC[n+]1ccc(/C=C2\Sc3ccccc3N2CCCS(=O)(=O)[O-])c2ccccc21	inconclusive: 31.6 µM [inhibitor, single point]	–
COc1cccc(OCCSc2nc3ccccc3n2CC(=O)N2CCOCC2)c1	inconclusive: 39.8 µM [inhibitor, single point]	–
Cc1ccc(NC(=O)CN2C(=O)N/C(=C/c3ccco3)C2=O)cc1	inconclusive: 17.8 µM [inhibitor, single point]	–
CCOc1ccccc1C(=O)NCc1ccc2c(c1)CCN2C(=O)c1ccc(F)cc1	inconclusive: 39.8 µM [inhibitor, single point]	–
COc1cccc(C(=O)Nc2cccc(C(=O)NC3=NN(c4c(Cl)cc(Cl)cc4Cl)C(=O)C3)c2)c1	inconclusive: 2.82 µM [inhibitor, full curve]	–
